In the supplement of paper PMC11417369:
This is one part of the list.

system: PfAP2-HC AP2 domain (GST-tagged); experiment: gcPBM binding intensity (ln(normalized median fluorescence intensity)); higher = stronger DNA binding
Procedure, shortened: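 GST-tagged P. falciparum DNA-binding domains produced in E. coli were incubated for 1 h on an Agilent 4 × 180k array of primer-extended double-stranded 36-bp intergenic genomic probes with negative controls. Binding intensity is the highest Masliner-normalised natural-log median intensity across replicate spots of either probe orientation, with bound protein detected by Alexa488 anti-GST antibody at 488 nm.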

| Sequence | gcPBM binding intensity (ln) |
| --- | --- |
| TTTAATAAATTGTGTACACAAAACATATAAATTTCG [CACACA_site5644] | 9.82 |
| AATTCAGCTTTACAACGTACACAATCATATGTCTAT [XGTACX_site8113] | 9.86 |
| TAATACATAAATGATTGTACATAAGAATTGAAACAT [XGTACX_site4583] | 9.77 |
| ATGAAGATTTAAAAATGTACATATGATCTATGTCCT [XGTACX_site8409] | 9.63 |
| TTTTTTTGCCATATTACACACACACCGGTAAACCCC [CACACA_site8475] | 10.2 |
| TATAAATAAATAAACACACACAAATAAAATAAAAAA [CACACA_site7623] | 10.3 |
| TTTATTTATTTATTCTTATTTTTTTTTTTTTTTACT [CACACA_negctrl_site257] | 9.49 |
| ACATATTAGGGTCATGAACACACAAAAAAAAAAAAA [CACACA_site8218] | 9.86 |
| TATATATATTAAAAACGTACAAAATAAGAATTAATT [XGTACX_site5979] | 9.73 |
| GGATATATTTTATGTACACACACATATAAGGGATTA [CACACA_site4181] | 9.95 |
| TCTAGGAAAAATTATAGTACACAAAAATATATATAT [XGTACX_site4136] | 9.56 |
| TATGACACTTTGAAGGGTACATGCAGAAAAAAAAAA [XGTACX_site569] | 9.52 |
| ATATATACATATACTATATCTTTTATTTTTATTATT [GTGCAC_negctrl_site127] | 9.92 |
| TTATATGCACTTTTTGCACACGTATGAATAACAAAA [CACACA_site1811] | 9.69 |
| TATCAAAATAAATGCACACAAATTGCACATATCTAT [CACACA_site1097] | 9.9 |
| ATTTATATGTAGATGTGTACTTAATTGTAATGTGTT [XGTACX_site6422] | 9.94 |
| CAAAAACATACCTACACACACAATATGTATAAATAA [CACACA_site7617] | 10.8 |
| TTGTTTTGCTAAAAATGTACTCTATATAAAAGCTTT [XGTACX_site4027] | 9.38 |
| TATATATATTATATATGTACACATATGTGAGAATGA [XGTACX_site2992] | 9.79 |
| TACTTCGATAATAATCGTACATATATATTGTATTTA [XGTACX_site5700] | 9.71 |
| CAAAAAATACGATGTTGTACTATGTATTCCTGATGT [XGTACX_site246] | 9.67 |
| TATATATACATAAAAACATGCAATATATACACATTA [TGCATGCA_site444] | 9.64 |
| AACTTTTTTATATGCACACATAAACAAGGATATATA [CACACA_site2874] | 9.67 |
| ATTTTATTTTTTGAGTGTACTAGTTCAACAACTCCG [XGTACX_site8600] | 9.54 |
